# Experimental data from PubChem BioAssay (NCATS).
# “And” between values parts separate entries of the source, which are not always exact repeats. Equal values may be shown once. The shares of active, inactive and inconclusive entries below differ from those in the screen. Where the call is inconclusive, the potency comes from a doubtful curve fit. The source made the active and inactive calls. The call rests on the fitted dose curve; in most records, active means well fitted inhibition curve with a large enough effect; inconclusive means small, poorly fitted or top-dose-only effect; inactive means flat fitted curve, though single readings scatter.
# Target: Calcium and integrin-binding protein 1 (Homo sapiens) (UniProt Q99828)
# Experiment: Primary qHTS for Identification of Calcium Integrin Binding Protein 1 (CIB1) Competitor (AID 1508620)
# Details: CIB1-GST / FITC-alphaIIb peptide fluorescence polarization; series mostly up to 114 µM
# Summary of the method: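 Fluorescence polarization competition: GST-tagged CIB1 (1 uM final) preincubated with compound 15 min at room temperature, then FITC-labelled alphaIIb peptide (100 nM final) added. After 15 min at room temperature, polarization read at Ex 480/Em 540.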
# Potency means the concentration at half of the fitted maximal effect; tags describe the fitted curve by direction and shape.
# Chain of UniProt Q99828 (Q99828 whole entry, looked up): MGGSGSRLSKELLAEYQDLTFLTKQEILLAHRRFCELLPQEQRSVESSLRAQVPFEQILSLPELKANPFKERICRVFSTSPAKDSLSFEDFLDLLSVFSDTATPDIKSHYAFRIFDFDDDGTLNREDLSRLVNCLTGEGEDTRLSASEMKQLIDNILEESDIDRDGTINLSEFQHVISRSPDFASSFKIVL
row,Compound,Potency
1,Nc1ccc2cc3ccc(N)cc3nc2c1,active: 2.24 µM
2,CCN(CC)CCCN(c1ccccc1)C1Cc2ccccc2C1,"inconclusive: 89.1 µM [inhibitor, single point]"
3,Cc1cc2nc3c(=O)[nH]c(=O)nc-3n(C[C@H](O)[C@H](O)[C@H](O)CO)c2cc1C,"inconclusive: 1.26 µM [inhibitor, full curve, poor fit]"
4,NC(=O)c1ncn([C@@H]2O[C@H](CO)[C@@H](O)[C@H]2O)c1O,"inconclusive: 20 µM [inhibitor, full curve]"
5,Oc1c(Cl)cc(Cl)c(Cl)c1Cc1c(O)c(Cl)cc(Cl)c1Cl,"inconclusive: 50.1 µM [inhibitor, partial curve]"
6,C=C(CC)C(=O)c1ccc(OCC(=O)O)c(Cl)c1Cl,"inconclusive: 1.26 µM [inhibitor, full curve]"
7,O=C(O)C[C@H](O)C[C@H](O)/C=C/c1c(C2CC2)nc2ccccc2c1-c1ccc(F)cc1,inactive
8,Oc1c(I)cc(Cl)c2cccnc12,"inconclusive: 56.2 µM [inhibitor, partial curve, poor fit]"
9,Nc1ncnc2nc[nH]c12,inactive
10,Cc1ncc(CSSCc2cnc(C)c(O)c2CO)c(CO)c1O,inactive
11,CC(C(C)N1CC(=O)NC(=O)C1)N1CC(=O)NC(=O)C1 (stereo not drawn),inactive
12,Cc1c(-c2cccc3c(CCCOc4cccc5ccccc45)c(C(=O)O)n(Cc4cccnc4)c23)c(COc2ccc(N3CCN([S+](=O)([O-])N(C)C)CC3)cc2)nn1C,"inconclusive: 30.4 µM [inhibitor, single point]"
13,O=[N+]([O-])c1ccc(O)c2ncccc12,"inconclusive: 31.6 µM [inhibitor, full curve, poor fit]"
14,CCCCCCCCCCCCCCCC[N+](C)(C)CCN(Cc1ccc(OC)cc1)c1ncccn1,"inconclusive: 79.4 µM [inhibitor, partial curve]"
15,CN(C)c1ccc(C(=C2C=CC(=[N+](C)C)C=C2)c2ccc(N(C)C)cc2)cc1,"inconclusive: 56.2 µM [inhibitor, partial curve, poor fit]"
16,Cc1c(C)c2c(c(C)c1O)CCC(C)(COc1ccc(CC3SC(=O)NC3=O)cc1)O2 (stereo not drawn),inactive
17,COc1cccc2c1C(=O)c1c(O)c3c(c(O)c1C2=O)C[C@@](O)(C(C)=O)C[C@@H]3O[C@H]1C[C@H](N)[C@H](O)[C@H](C)O1,"inconclusive: 11.2 µM [inhibitor, full curve]"
18,CC(C)(Sc1cc(C(C)(C)C)c(O)c(C(C)(C)C)c1)Sc1cc(C(C)(C)C)c(O)c(C(C)(C)C)c1,inactive
19,O=C(O)CCNc1cc(N2CCc3ccccc3CC2)nc(-c2ccccn2)n1,"inconclusive: 30.4 µM [inhibitor, partial curve, poor fit] and inconclusive: 10 µM [inhibitor, partial curve, poor fit]"
20,CCCCCCCCCCCCCCCC[N+](C)(C)CC,"inconclusive: 89.1 µM [inhibitor, single point]"
21,O=S(=O)(O)c1ccc2cc(N=Nc3cc(S(=O)(=O)O)c4cccnc4c3O)ccc2c1,"inconclusive: 17.1 µM [inhibitor, partial curve] and inconclusive: 3.16 µM [inhibitor, full curve, poor fit]"
22,O=S1(=O)OC(c2ccc(O)cc2)(c2ccc(O)cc2)c2ccccc21,"inconclusive: 44.7 µM [inhibitor, partial curve, poor fit]"
23,CCCCCCCCCCCCCCCC[n+]1ccccc1,"inconclusive: 89.1 µM [inhibitor, partial curve, poor fit]"
24,CC/C(=C(/CC)c1ccc(O)cc1)c1ccc(O)cc1,inactive
25,C[n+]1c2cc(N)ccc2cc2ccc(N)cc21 (tested in a mixture with another compound),"inconclusive: 1.12 µM [inhibitor, full curve, poor fit]"
26,NC(=NCCCCCCN=C(N)/N=C(\N)Nc1ccc(Cl)cc1)/N=C(\N)Nc1ccc(Cl)cc1,"inconclusive: 50.1 µM [inhibitor, partial curve]"
27,C[n+]1cc2c3c(ccc2c2ccc4cc5c(cc4c21)OCO5)OCO3,active: 14.1 µM
28,NC[C@H](O)c1ccc(O)c(O)c1,"inconclusive: 35.5 µM [inhibitor, partial curve, poor fit]"
